Laboratory results from ChEMBL document CHEMBL4888484, “Replenishing the malaria drug discovery pipeline: Screening and hit evaluation of the MMV Hit Generation Library 1 (HGL1) against asexual blood stage Plasmodium falciparum ,using a nano luciferase reporter read-out” (2022).
In all, about 150,000 compounds went through this assay and about 540 (0.36%) showed an effect of 50% or more. This is one part of the list.

These compounds were tested on Plasmodium falciparum (assay: Primary screen in NF54 nanoGlo assay, in single point, at 2uM, 72h; a lower Z score goes with more inhibition). Conditions: timepoint 72 hour.
Format: functional, Erythrocyte

Compound | % Inhibition [%] | Z score
CCCCN(CCO)C(=O)Nc1cnn(CC)c1 | -8 | 0.74
O=C1CCC(NC(=O)c2ccc(NCC3CC3)nc2)C(C2CC2)N1 (configuration not stated) | -4 | 0.65
COc1ccc(C(=O)NC(C)(C)c2c(C)noc2C)cn1 | -5 | 0.59
COc1ccccc1CC(=O)NC[C@H](O)c1ccc2ccccc2c1 | 1 | -0.2
CN(C)CCNC(=O)Nc1ccn(-c2ncccc2Cl)n1 | 30 | -0.62
C=CCCC(=O)NCc1cn(-c2ccncc2)nn1 | 9 | -1.2
CN(C)C(=O)CNc1cccc(Cl)c1 | -6 | 0.85
Cc1nc([C@H](C)n2ccnc2-c2c[nH]cn2)cs1 | -1 | 0.11
CCCc1ncncc1C(=O)N1CCC[C@H](c2nccn2CC)C1 | -17 | 3.11
O=C(CC1CCCC1)Nc1ncccc1O | -5 | 0.78
Cc1nnsc1C(=O)N1C2C=CCC1CC2 (configuration not stated) | -10 | 1.68
CC(C)(NC(=O)NCc1cccnc1)c1ccc2c(c1)OCO2 | -9 | 1.19
CC[C@](C)(NC(=O)C(=O)Nc1cc(C)c(F)cc1C)c1nccs1 | 22 | -3.13
Cc1ccc(O[C@H]2CCc3ccccc32)nn1 | -2 | 0.22
COc1cc2ccc3c(CCN(C)C(=O)[C@H]4CCOC(C)(C)C4)cc(OC)c(OC)c3c2cc1OC | 12 | -1.94
CCOCCCN(CC(=O)N(Cc1ccc(F)cc1)Cc1ccc(C)o1)C(=O)Nc1ccccc1C(F)(F)F | -7 | 1.01
CCc1nn(-c2ccccc2)c(Oc2ccccc2OC)c1CN(CCOC)C(=O)c1ccccc1 | -17 | 1.61
C=CCC(CN1CCOCC1c1noc(C)n1)c1ccccc1 (configuration not stated) | 3 | -0.66
O=C(COc1cccnc1)N1CC(S(=O)(=O)Nc2ccccc2)C1 | 3 | -0.44
COc1ccc([C@H]2CC(=O)Nc3nc(N)sc32)cc1OCc1ccc(Cl)cc1 | -10 | 1.32
O=C1c2ccccc2N[C@H](c2ccco2)N1c1ccc2c(c1)OCO2 | -34 | 3.97
Cc1cnc(C(=O)N2CCOC[C@H]2c2ccnn2C)c(C)c1 | 0 | 0.03

Compound | % Inhibition [%] | Z score
Cc1ncc(CN(C)CCC2(O)CCCC2)n1C | -12 | 1.26
CN(C)S(=O)(=O)c1ccc2c(c1)nnn2CCCC(=O)Nc1cccnc1 | 14 | -1.91
Cc1cc(C)c(NS(=O)(=O)c2ccc(-c3ccn[nH]3)s2)c(C)c1 | 7 | -1.41
Cc1n[nH]cc1CNC[C@H]1COc2ccccc2O1 | -6 | 0.88
FC(F)(F)c1cnc(O[C@H]2CCNC2)c(Cl)c1 | 1 | -0.15
Cn1cc(CN2CCC(C(=O)NCCN3CCOCC3)CC2)c2cc(Cl)ccc21 | 15 | -1.95
CC(C)n1nccc1C=Cc1cccnn1 | -5 | 0.77
CCn1cnnc1Cn1c(=O)n(C2CCCCC2)c2ncc(C(=O)OC)cc21 | -1 | 0.12
CCOCCC(=O)N[C@H](c1nc(C)cs1)C1CC1 | -6 | 0.65
COC(=O)CC1(NC(=O)Nc2ccc(C(=O)N3CCCC[C@@H]3C)cc2)CCCCC1 | -11 | 1.87
C[C@]1(C(=O)NCc2nc(-c3ccco3)n[nH]2)CC1(Cl)Cl | -11 | 1.58
COCC(=O)N[C@@H]1CC[C@H]2CCOc3ccccc3C(=O)N3CCN(C(C)C)C[C@H]3C(=O)NC[C@H]1O2 | -5 | 0.64
CCC(C)NC(=O)C1Cc2ccc(OC)cc2N2CCN(c3ccccc3OC)CC12 (configuration not stated) | -10 | 1.33
Fc1cncc(-c2nc(-c3ccncc3)no2)c1 | -12 | 1.39
Nc1nc(CCC(=O)N2C[C@@H]3CC[C@H]2CN(Cc2ccccc2)C3)cs1 | -5 | 0.95
CCNC(=O)[C@H](C)NC(=O)CCCC(=O)c1c(C)cc(C)cc1C | 3 | -0.33
CC[C@H](OC)C(=O)NS(=O)(=O)c1ccc(NC(C)=O)cc1 | -1 | 0.11
CC(C)(C(=O)NCc1cc[nH]n1)c1ccc(Cl)cc1F | 6 | -1.04
Cc1nc2c(C)cccc2cc1C(=O)N1CC2(CNC(=O)N2)C1 | -3 | 0.56
CCCOc1ccc(CN2C[C@H](COc3cccnc3)C3(CCOCC3)C2)cc1 | 19 | -2.49
Cc1c(-c2ccc(F)cc2)[nH]c2ccc(CNC(=O)CCN3CCCO3)cc12 | 1 | -0.22
CCC(=O)NCc1ccc(-c2noc(Cc3ccc(C)cc3)n2)s1 | -6 | 0.69

Compound | % Inhibition [%] | Z score
CC(C)CN(CC(C)C)S(=O)(=O)c1cccc(Br)c1 | -12 | 1.41
Cc1nnc(NC(=O)C2(C)CC2F)s1 (configuration not stated) | -3 | 0.34
CCOc1ccc(C(=O)Nc2ccc3ncnc(N4CCCCC4)c3c2)cc1 | 6 | -1.07
CCC(=O)N1CCN(C(=O)c2ccc(=O)n(C)c2)C1 | -9 | 1.02
O=C1CCC2(CCN(c3ccc(Cl)cn3)CC2)CN1[C@H]1CC[C@H](O)CC1 | -13 | 1.75
O=C(C[C@H]1CNCCO1)NCC1CCC(c2nc3ccccc3[nH]2)CC1 (some centres not stated) | 3 | -0.48
Cc1ncc2c(n1)CN(C1CC(C)OC1=O)CC2 (configuration not stated) | -5 | 0.86
CCN(CC)c1ccc(-c2nc(C3(S(C)(=O)=O)CC3)no2)cn1 | 5 | -0.78
CCCc1nc(C)c(CNC(=O)c2ccc(OC)c(O)c2)s1 | -4 | 0.88
Cc1cnc(CNC(=O)N2CCOCC2)o1 | 3 | -0.4
COCCN(CC(=O)N1N=C(c2ccc(OC)cc2)C[C@H]1c1ccc(OC)cc1)C(=O)c1cccc(F)c1 | -2 | 0.28
CCN(CC)S(=O)(=O)c1ccc2c(c1)nnn2CCC(=O)NC(C)(C)C | 5 | -0.5
COCCNC(=O)C1CCC(c2ccccc2)N(C(=O)c2ccccc2F)C1 (configuration not stated) | -13 | 1.68
CCn1nccc1C(=O)N1CC[C@H](c2nc3cccnc3n2CC)C1 | 2 | -0.21
CCn1cc(S(=O)(=O)N2CCc3ccccc3CC2)cc1C(=O)O | 20 | -2.27
COc1ccc(CC(=O)N2CCNc3ncc(C)cc32)c(C)c1 | -13 | 1.53
CC(C)c1nc(C(=O)N2CCc3[nH]c4c(Cl)cccc4c3C2)cs1 | 8 | -1.18
CCn1cc(-c2ccc(C)cc2)cc1C(=O)NCc1ccccn1 | 10 | -1.62
Cc1ccccc1NC(=O)N1CCC(N2C(=O)COCC2=O)CC1 | 13 | -1.69
CC(C)(C)OC(=O)N1CC2(C1)NCCn1cccc12 | -11 | 1.1
Cc1nnc(N2CCN(S(=O)(=O)c3conc3C)CC2)s1 | 3 | -0.31
Cc1c(-c2cccc(-c3ccn(CCF)n3)c2)c(=O)n(C)c(=O)n1C | 8 | -1.33

Compound | % Inhibition [%] | Z score
COc1ccc(NC(=O)CN2C(=O)COc3ccc(C(=O)N4CCCCC4)cc32)cc1 | -2 | 0.2
Cc1c(C(=O)O)nn(-c2ccc(F)cc2)c1Oc1ccc(NC(=O)CC(C)C)cc1S(=O)(=O)NCC(C)C | -16 | 1.93
CN(C)c1cccc(C(=O)N[C@@H](CO)C(C)(C)C)c1 | 35 | -3.95
CCNC(=O)N1CC[C@H](OCCCc2ccccc2)C1 | -4 | 0.65
Cc1ccc2nc(N3CCC[C@H](O)C3)c(CN(C)Cc3ccnc(C)c3)cc2c1 | 4 | -0.55
Cc1nn(CCO)cc1CNCc1cc(CC(C)C)no1 | -10 | 1.6
N#CC1(CS(=O)(=O)N2CC3(CCCCC3)[C@H]2c2ccccc2)CC1 | -5 | 0.54
Cc1ccccc1C1CC1Nc1ncccn1 (configuration not stated) | -9 | 1.2
Cc1nccc(NC(=O)NC(CC2CCCO2)C(F)(F)F)c1Br (configuration not stated) | 6 | -0.86
C#CCN(CCCc1ccccc1C)[C@H]1CCS(=O)(=O)C1 | 39 | -4.45
Cc1ncc(CN2CCC(Oc3cccc(F)c3)(C(=O)O)CC2)n1C | -8 | 1.53
Cc1noc(CNC(=O)c2nnn(-c3nc4c(s3)CCCC4)c2C)n1 | -10 | 1.81
CN(C1(CO)CCC1)S(=O)(=O)c1cnc2ccsc2c1 | -9 | 0.74
CC(=O)c1c(C)nn([C@@H](C)CC(=O)NCCc2nc(C)c3c(n2)CCC3)c1C | 5 | -0.97
COc1ccc(Cl)cc1NC(=O)C12CCC(C)(C(=O)C1=O)C2(C)C (configuration not stated) | -12 | 1.48
CC1(C)[C@@H]2CCC13CS(=O)(=O)N(Cc1ccc(S(C)(=O)=O)o1)[C@H]3C2 | 7 | -0.91
O=C(NCc1cc(Oc2cccc(Cl)c2)ccn1)C1CCOCC1 | 1 | -0.28
CC1CN(c2cc(C(=O)c3cccnc3)ccn2)CC(C2CC2)O1 (configuration not stated) | -8 | 0.84
Cc1cncc(C(=O)Nc2cnccn2)c1 | -11 | 1.12
Cc1oc(C2CCN(C(=O)Nc3cccc(F)c3C)CC2)nc1C(=O)N1CCCC1 | -3 | 0.55
